Measurements reported in a collection of fitness landscapes (doi:10.1016/j.celrep.2020.107928).
Over roughly 81,000 sequences, “one-hybrid fitness for binding NBS DNA” has its median near -0.1; the highest 2% begin near 0.36. The list shows a part of the results.

B1: Caulobacter ParB omega fusion; a variant is named by its letters at X, in order, B8GW30 (parent)
chain: MESVVVGEPGMSEGRRGLGRGLSALLGEVDAAPAQAPGEQLGGSREAPIEILQRNPDQPRRTFREEDLEDLSNSIREKGVLQPILVRPSPDTAGEYQIVAGERAWRAAQRAGLKTVPIMVRELDDLAVLEIGIIENVQRADLNVLEEALSYKVLMEKFERTQENIAQTIGKSXSHVANXMRLLXLPDEVQSYLVSGELTAXHARAIAAAADPVALAKQIIEGGLSVRETEALARKAPNLSAGKSKGGRPPRVKDTDTQALESDLSSVLGLDVSIDHRGSTGTLTITYATLEQLDDLCNRLTRGI

Variants of: B1
Test: one-hybrid fitness for binding NBS DNA (the Noc-binding site; scaled: cognate 1, non-cognate 0); higher = stronger binding
Conditions: with NBS DNA site
Procedure, shortened: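 Values were rescaled so that cognate is 1 and non-cognate is 0. Each is a fitness, the log change in a variant's read ratio to wild type from Illumina reads of plasmids before and after selection, with three replicate libraries pooled and variants under 10 reads dropped. Selection of the Caulobacter ParB libraries, four specificity codons randomised, used E. coli USO with a HIS3 reporter, site 19 bp from the promoter, on M9-minus-histidine with 0.1 mM IPTG and 5 mM 3-AT for 48 hours at 37°C.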

Variant	one-hybrid fitness for binding NBS DNA
GMDG	≤ 0.2
PDSE	≤ 0.2
TSQD	≤ 0.2
HGLS	≤ 0.2
QVTC	≤ 0.2
TTTN	≤ 0.2
LEEC	≤ 0.2
AAVD	≤ 0.2
QTNY	0.431
MYLM	≤ 0.2
LKEV	≤ 0.2
AWRT	≤ 0.2
WQFG	≤ 0.2
EKTT	≤ 0.2
AITE	≤ 0.2
IQCS	≤ 0.2
ANSH	≤ 0.2
RYHS	0.441
MLYS	≤ 0.2
CISL	≤ 0.2
TYVC	≤ 0.2
TKKQ	≤ 0.2
GASR	≤ 0.2
PNPC	≤ 0.2
TFQK	≤ 0.2

Variant	one-hybrid fitness for binding NBS DNA
HIEK	≤ 0.2
YLCY	≤ 0.2
ERRV	≤ 0.2
PAKC	≤ 0.2
STPT	≤ 0.2
LKQP	≤ 0.2
YCIW	≤ 0.2
CEQS	≤ 0.2
RKHQ	≤ 0.2
LLAN	≤ 0.2
SIYF	≤ 0.2
QRWT	0.707
DSYD	≤ 0.2
QPQT	≤ 0.2
AQHL	≤ 0.2
ECTS	≤ 0.2
KNRV	≤ 0.2
MLNE	≤ 0.2
HYTD	≤ 0.2
RYYQ	≤ 0.2
SMAI	≤ 0.2
VSYC	≤ 0.2
ITYG	≤ 0.2
PMSM	≤ 0.2
RSQW	≤ 0.2

Variant	one-hybrid fitness for binding NBS DNA
ELDL	≤ 0.2
CTGH	≤ 0.2
RVMI	≤ 0.2
LGYN	≤ 0.2
LQIN	≤ 0.2
DEWS	≤ 0.2
SEPA	≤ 0.2
IEYR	≤ 0.2
RKAD	≤ 0.2
CRKT	0.365
ISNG	≤ 0.2
QHMT	0.328
IINW	≤ 0.2
VYRP	≤ 0.2
TNMC	≤ 0.2
YPAA	≤ 0.2
QYCT	0.419
HGER	≤ 0.2
YLEG	≤ 0.2
ALPM	≤ 0.2
NEAP	≤ 0.2
QGYV	≤ 0.2
LMWL	≤ 0.2
HSLD	≤ 0.2
CNYR	≤ 0.2

Variant	one-hybrid fitness for binding NBS DNA
WRVS	≤ 0.2
GTGR	≤ 0.2
SLNS	≤ 0.2
AAHH	≤ 0.2
TLFA	≤ 0.2
RHCW	≤ 0.2
ERNM	≤ 0.2
PSRG	≤ 0.2
KAVK	≤ 0.2
NVDR	≤ 0.2
VFTR	≤ 0.2
FGNT	≤ 0.2
VVSC	≤ 0.2
NHFT	≤ 0.2
RAPK	≤ 0.2
VWTS	≤ 0.2
AQAL	≤ 0.2
WRDF	≤ 0.2
SSEE	≤ 0.2
WIKS	≤ 0.2
QRCL	0.251
MLQF	≤ 0.2
QGCR	≤ 0.2
RQCG	≤ 0.2
KRSQ	≤ 0.2

Variant	one-hybrid fitness for binding NBS DNA
ALDM	≤ 0.2
STWC	≤ 0.2
ALGA	≤ 0.2
STRQ	≤ 0.2
AIVS	≤ 0.2
DASW	≤ 0.2
RSIS	0.203
NHGR	≤ 0.2
SETF	≤ 0.2
TMAC	≤ 0.2
PVVW	≤ 0.2
GLVC	≤ 0.2
SYKL	≤ 0.2
NPTM	≤ 0.2
IHTM	≤ 0.2
CEWG	≤ 0.2
ISAL	≤ 0.2
MNSY	≤ 0.2
AGKS	≤ 0.2
MRDL	≤ 0.2
QTMV	≤ 0.2
MTVC	≤ 0.2
SDNT	≤ 0.2
NRAV	≤ 0.2
TCML	≤ 0.2

Variant	one-hybrid fitness for binding NBS DNA
KTGE	≤ 0.2
WWDC	≤ 0.2
VTFR	≤ 0.2
LFHG	≤ 0.2
WDNT	≤ 0.2
EHST	≤ 0.2
LHKV	≤ 0.2
RYLS	0.272
HSCI	≤ 0.2
VKMN	≤ 0.2
GGKL	≤ 0.2
DDMR	≤ 0.2
YDEG	≤ 0.2
DYRI	≤ 0.2
EYPR	≤ 0.2
HAIC	≤ 0.2
AFSF	≤ 0.2
FKRW	≤ 0.2
EPCT	≤ 0.2
PHAS	≤ 0.2
PHHS	≤ 0.2
PNIG	≤ 0.2
LEEY	≤ 0.2
VLTE	≤ 0.2
GIHT	≤ 0.2

Variant	one-hybrid fitness for binding NBS DNA
KFWS	≤ 0.2
QEGP	≤ 0.2
QRGN	0.418
PQWP	≤ 0.2
YSAV	≤ 0.2
DTLP	≤ 0.2
HPHA	≤ 0.2
RYAS	0.342
VIVY	≤ 0.2
YIPY	≤ 0.2
TWAS	≤ 0.2
RDHN	≤ 0.2
VLGF	≤ 0.2
APIF	≤ 0.2
DGAS	≤ 0.2
QERM	≤ 0.2
DMTI	≤ 0.2
QWRR	0.355
PPCY	≤ 0.2
NDIR	≤ 0.2
KQKL	≤ 0.2
IGEG	≤ 0.2
DWSL	≤ 0.2
TSAI	≤ 0.2
VECR	≤ 0.2

Variant	one-hybrid fitness for binding NBS DNA
HCRA	≤ 0.2
NQYS	≤ 0.2
ACAM	≤ 0.2
GMRS	≤ 0.2
ILMR	≤ 0.2
WLKD	≤ 0.2
PNQF	≤ 0.2
VFAR	≤ 0.2
QYTG	≤ 0.2
NLGG	≤ 0.2
YLVG	≤ 0.2
YVQT	≤ 0.2
PMQC	≤ 0.2
LWMR	≤ 0.2
MRAT	≤ 0.2
CELS	≤ 0.2
GLSK	≤ 0.2
TSCI	≤ 0.2
EAHG	≤ 0.2
ANVV	≤ 0.2
